Values marked as one replicate rest on one cluster of the flow cell; about a third of the high ones do not repeat.
tested on: ATP; assay: switch fluorescence ratio, 500 uM ATP over buffer (Cy3 cluster intensity, sum of 5 cycles each) (fold (ratio)); higher = stronger signal-on switching upon ATP binding; sequences stand for … in TCGTCGGCAGCGTCAGATGTGTATAAGAGACAGTTTTTTTTTTTTTTTTTTTTTTTTT…TC; settings: aptamer strand: ATP DNA aptamer (quencher-CACCTGGGGGAGTATTGCGGAGGAAGG + anchor), 100 nM annealed; ATP concentration: 500 uM; one replicate
Outline: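 After annealing to 100 nM quencher-labelled ATP aptamer, Cy3-labelled switching-strand clusters on a modified Illumina MiSeq flow-cell were imaged in selection buffer. A second image followed after 15 min with 500 uM ATP at 22 °C, and five such buffer/ATP cycles were done, each separated by NaOH stripping and re-annealing. The fluorescence ratio, averaged per switch-domain sequence, is summed target-cycle over summed buffer-cycle Cy3 intensity per cluster, with clusters outside 100-1000 RFU excluded.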
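Note: ATP exposure 15 min at 22 °C before imaging.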

Sequence	switch fluorescence ratio
TCCACGTGGT	0.987
TCCAGACCAT	1.01
TCCAGCCGCG	1.47
TCCAGCTGGG	1.07
TCCAGGGCGC	1.1
TCCAGTAAAC	1.24
TCCAGTCTGT	0.983
TCCAGTGTTT	1.02
TCCAGTTCTT	1.06
TCCATAAAGG	0.99
TCCATCCTTG	1
TCCATGAGCT	0.978
TCCATGCGGT	1.01
TCCATGGGAG	1.02
TCCCCCACCA	1.15
TCCCGCCCTT	1.11
TCCCGGCAAC	4.08
TCCCGTCGGA	1
TCCCGTTGC	2.8
TCCCTCCTAC	2.36
TCCCTGATTA	0.994
TCCCTGGGCG	1.07
TCCCTTTCTA	0.977
TCCGAAATAC	1.5
TCCGAGATTT	1.03

Sequence	switch fluorescence ratio
TCCGAGCCGT	1.06
TCCGATGGTC	1.44
TCCGCCAAAT	3.02
TCCGCCAACA	2.44
TCCGCCTGCT	1.44
TCCGCCTTAT	2.66
TCCGGACTTA	1.06
TCCGGCCACC	1.18
TCCGGCCGG	0.988
TCCGGCGCGG	2.93
TCCGGGGGTC	1.06
TCCGGTTTGC	1.21
TCCGTATACG	1.03
TCCGTATTCT	1.04
TCCGTCACGT	1.1
TCCGTCGTTC	1.2
TCCGTGATGA	1
TCCGTGGAGT	1.04
TCCGTTACGC	2.41
TCCGTTCCTT	1.05
TCCTAAGTAG	1.06
TCCTAGAACC	1.08
TCCTATTATT	0.976
TCCTATTGGT	1.01
TCCTCAGCCA	3.81

Sequence	switch fluorescence ratio
TCCTGAGCCG	0.989
TCCTGGACTT	1.21
TCCTGGGACA	0.971
TCCTGTGG	1.02
TCCTGTGGCG	0.946
TCCTGTTTAT	1.04
TCCTTAAATG	0.981
TCCTTAAGGG	1.03
TCCTTAGGGA	0.987
TCCTTCAGCA	3.21
TCCTTCATAG	1.16
TCCTTGCAGC	3.77
TCCTTGCCAT	1.01
TCCTTTACTC	1.23
TCCTTTATGG	0.995
TCCTTTATTA	0.963
TCGAAACATT	1.01
TCGAACTAAT	1.02
TCGAATCGTG	0.977
TCGAATCTGG	0.986
TCGAATGATG	1.11
TCGACAGCTT	1.34
TCGACGCACC	3.82
TCGACTACGC	1.16
TCGAGATTGG	1.01

Sequence	switch fluorescence ratio
TCGAGCACGA	1.09
TCGAGCATC	2.37
TCGAGCCAAT	1.72
TCGAGGAGCC	1.02
TCGAGGAGGG	0.962
TCGAGGGACT	1
TCGAGGGATG	1.03
TCGAGTGAAA	1.02
TCGAGTTATA	0.998
TCGATATCTG	0.998
TCGATCAGTG	0.954
TCGATGAACT	1.01
TCGATGCCAC	1.21
TCGATGCCCC	1.05
TCGATGGGCC	1.01
TCGATGGTGA	1.01
TCGATTAGTG	0.972
TCGATTTAGC	0.967
TCGCAACTAA	4.12
TCGCAAGCCA	1.42
TCGCACGATA	1.09
TCGCAGACAC	1.89
TCGCAGACCT	1.28
TCGCAGAGAA	1.03
TCGCAGATGT	1.03
